16 molecules from the supplement of paper PMC4604168 (melanoma cell lines) can be followed below.

Assay in all cases: cell count relative to DMSO control; melanoma cells; higher = more viable cells
Settings in all cases: library dose: low library concentration; 72 h; first compound 0.4 µM

Test [1] has as its system WM115.
For test [2], the system named is WM1716.
The test system of test [3] is WM1745.
The subject of test [4] is WM3526.
Test [5] deals with WM3619.
For test [6], the system named is WM451Lu.

Structures are written as SMILES. Some of the results follow. Repeats are few or missing, and single values can be far off.
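Note: cell number obtained by counting DAPI-stained nuclei in high-throughput microscope images with image analysis software, screen run in 1,536-well plates.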

Consider `C[C@@H](N)c1ccc(C(=O)Nc2ccnc3[nH]ccc23)cc1` + COc1ccc(COc2ccc(Cc3cnc(N)nc3N)cc2OC)cc1 [GW2580] (partner dose 1 µM), for which the cell count is 112% in test [1]; 66.7% in test [2]; 73.6% in test [3]; 98.1% in test [4]; 99.1% in test [5]; 101% in test [6].

As to `CCCCCCCCCCCCCCCCCCOP(=O)([O-])OC1CC[N+](C)(C)CC1` [Perifosine] + O=C(CCCCCCC(=O)Nc1ccccc1)NO [vorinostat] (partner dose 0.08 µM), the cell count was 91.7% in test [1]; 99% in test [2]; 79.6% in test [3]; 95.1% in test [4]; 92.2% in test [5]; 70.4% in test [6].

Consider `Cn1sc(=O)n(Cc2ccccc2)c1=O` + Cn1nnc2c(C(N)=O)ncn2c1=O [temozolomide] (partner dose 2 µM), for which the cell count in test [1] turned out to be 89.3%; in test [2] it was 75.8%; in test [3] it was 96.1%; in test [4], 122%; in test [5], 96.8%; in test [6], 89%.

As to `CCCCCCCCCCCCCCCCCCOP(=O)([O-])OC1CC[N+](C)(C)CC1` [Perifosine] + Cn1cnc2c(F)c(Nc3ccc(Br)cc3Cl)c(C(=O)NOCCO)cc21 [selumetinib] (partner dose 0.015 µM), the cell count worked out at 99.6% in test [1]; 105% in test [2]; 99% in test [3]; 87.9% in test [4]; 89% in test [5]; 86.1% in test [6].

For `CCCCCCCCCCCCCCCCCCOP(=O)([O-])OC1CC[N+](C)(C)CC1` [Perifosine] + Cn1cc(/C=C2\C(=O)Nc3cccnc32)c2ccccc21 [GW441756] (partner dose 0.4 µM), the cell count in test [1] was 94.8%; in test [2], 101%; in test [3], 120%; in test [4] it was 108%; in test [5] it was 105%; in test [6], 62.7%.

With `C[C@@H](N)c1ccc(C(=O)Nc2ccnc3[nH]ccc23)cc1` + C=CCn1c(=O)c2cnc(Nc3ccc(N4CCN(C)CC4)cc3)nc2n1-c1cccc(C(C)(C)O)n1 [MK1775] (partner dose 0.02 µM), the cell count in test [1] amounted to 92.2%; in test [2], 68.2%; in test [3] it was 63.7%; in test [4], 114%; in test [5] it was 82.9%; in test [6], 111%.

For `Cn1sc(=O)n(Cc2ccccc2)c1=O` + CC(C)(C)c1cnc(CSc2cnc(NC(=O)C3CCNCC3)s2)o1 [SNS-032] (partner dose 0.01 µM), the cell count in test [1] is 80.6%; in test [2], 92.2%; in test [3], 102%; in test [4], 76.5%; in test [5] it was 104%; in test [6], 95.3%.

For `CCCCCCCCCCCCCCCCCCOP(=O)([O-])OC1CC[N+](C)(C)CC1` [Perifosine] + CC(=O)c1c(C)c2cnc(Nc3ccc(N4CCNCC4)cn3)nc2n(C2CCCC2)c1=O [palbociclib] (partner dose 0.04 µM), the cell count in test [1] amounted to 83.3%; in test [2] it was 70.4%; in test [3], 78%; in test [4] it was 44.7%; in test [5], 78.3%; in test [6], 93.1%.

As to `C[C@@H](N)c1ccc(C(=O)Nc2ccnc3[nH]ccc23)cc1` + COc1cc2ncnc(Nc3ccc(Oc4ccccc4)cc3)c2cc1OC [SrcI1] (partner dose 2 µM), the cell count in test [1] is 114%; in test [2], 73.4%; in test [3] it was 79.4%; in test [4] it was 106%; in test [5], 120%; in test [6], 70.1%.

As to `Cn1sc(=O)n(Cc2ccccc2)c1=O` + N#Cc1c(O)c2c(-c3ccc(-c4ccccc4O)cc3)csc2[nH]c1=O [A769662] (partner dose 2 µM), the cell count in test [1] worked out at 105%; in test [2], 95.8%; in test [3], 99.9%; in test [4], 90.1%; in test [5] it was 98%; in test [6], 129%.

In the case of `CCCCCCCCCCCCCCCCCCOP(=O)([O-])OC1CC[N+](C)(C)CC1` [Perifosine] + c1cc(-c2cnn3cc(-c4ccc(OCCN5CCCCC5)cc4)cnc23)ccn1 [Dorsomorphin] (partner dose 0.4 µM), the cell count in test [1] came out at 98.3%; in test [2], 89.4%; in test [3] it was 78.3%; in test [4] it was 93.1%; in test [5] it was 116%; in test [6], 98.3%.

Consider `CCCCCCCCCCCCCCCCCCOP(=O)([O-])OC1CC[N+](C)(C)CC1` [Perifosine] + Cc1ccc(NC(=O)c2cccc(N(C)C)c2)cc1NC(=O)c1ccc(O)cc1 [ZM336372] (partner dose 2 µM), for which the cell count in test [1] is 97.6%; in test [2], 103%; in test [3], 77.5%; in test [4] it was 102%; in test [5], 85.1%; in test [6] it was 102%.

For the molecule `CCCCCCCCCCCCCCCCCCOP(=O)([O-])OC1CC[N+](C)(C)CC1` [Perifosine] + Oc1nc(-c2ccc(C(F)(F)F)cc2)nc2c1CSCC2 [XAV939] (partner dose 2 µM), the cell count in test [1] came out at 85.9%; in test [2], 69.1%; in test [3] it was 83.6%; in test [4] it was 85.4%; in test [5], 110%; in test [6], 91.3%.

On to `CCCCCCCCCCCCCCCCCCOP(=O)([O-])OC1CC[N+](C)(C)CC1` [Perifosine] + Cc1cc([N+](=O)[O-])ccc1NS(=O)(=O)c1cc(Cl)ccc1Cl [FH535] (partner dose 1 µM), for which the cell count came out at 84.8% in test [1]; 82% in test [2]; 83.2% in test [3]; 97.4% in test [4]; 85.1% in test [5]; 93.3% in test [6].

Regarding `Cn1sc(=O)n(Cc2ccccc2)c1=O` + COc1ccc(COc2ccc(Cc3cnc(N)nc3N)cc2OC)cc1 [GW2580] (partner dose 1 µM), the cell count came to 84.9% in test [1]; 104% in test [2]; 92.1% in test [3]; 111% in test [4]; 113% in test [5]; 93.6% in test [6].

For `CCCCCCCCCCCCCCCCCCOP(=O)([O-])OC1CC[N+](C)(C)CC1` [Perifosine] + Cc1cn(-c2cc(NC(=O)c3ccc(C)c(Nc4nccc(-c5cccnc5)n4)c3)cc(C(F)(F)F)c2)cn1 [nilotinib] (partner dose 0.2 µM), the cell count in test [1] stood at 113%; in test [2], 116%; in test [3] it was 75.9%; in test [4], 89.4%; in test [5] it was 97.2%; in test [6], 118%.
